Test results: paper PMC12022045 (Nature Communications, 2025)

Target: T1, His-MED15 (human, UniProt Q96RN5-2 1-748)
T1 sequence (looked up): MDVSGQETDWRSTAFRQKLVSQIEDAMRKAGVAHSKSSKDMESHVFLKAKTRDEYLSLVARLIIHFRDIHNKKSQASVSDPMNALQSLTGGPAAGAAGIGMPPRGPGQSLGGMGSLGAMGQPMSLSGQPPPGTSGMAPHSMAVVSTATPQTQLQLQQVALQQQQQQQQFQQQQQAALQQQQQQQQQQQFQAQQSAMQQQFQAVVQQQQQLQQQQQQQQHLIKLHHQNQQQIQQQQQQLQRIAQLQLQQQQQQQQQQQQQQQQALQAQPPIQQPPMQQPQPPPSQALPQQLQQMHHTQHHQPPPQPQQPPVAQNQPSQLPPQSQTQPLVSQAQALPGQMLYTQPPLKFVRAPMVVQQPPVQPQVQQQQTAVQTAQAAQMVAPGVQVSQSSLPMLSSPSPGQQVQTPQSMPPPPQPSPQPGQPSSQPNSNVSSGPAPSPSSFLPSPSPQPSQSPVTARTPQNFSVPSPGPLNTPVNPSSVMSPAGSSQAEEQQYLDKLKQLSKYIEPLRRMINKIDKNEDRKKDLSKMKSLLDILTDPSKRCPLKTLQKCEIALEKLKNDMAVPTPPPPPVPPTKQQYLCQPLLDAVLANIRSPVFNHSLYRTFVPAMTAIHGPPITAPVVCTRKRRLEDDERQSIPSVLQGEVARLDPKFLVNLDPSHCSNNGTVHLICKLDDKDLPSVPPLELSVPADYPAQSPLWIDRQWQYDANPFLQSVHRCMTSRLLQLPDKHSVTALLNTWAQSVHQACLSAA
Experiment: SPR

- Kd: 27.5 ± 14.8 nM
B1: His-YAP (natural protein)
chain: not shown
